Test results as given in PMC4336329 (PLoS ONE, 2015).
Among all 310,000 compounds or so, about 2,200 (0.71%) showed an effect of 50% or more. Effects have a minus sign here. This is one part of the list.

biological target: human ether-à-go-go-related gene (hERG) potassium channel (human, UniProt Q12809); experiment: primary screen, population patch clamp on CHO cells stably expressing hERG
Sequence (Q12809 whole entry, looked up): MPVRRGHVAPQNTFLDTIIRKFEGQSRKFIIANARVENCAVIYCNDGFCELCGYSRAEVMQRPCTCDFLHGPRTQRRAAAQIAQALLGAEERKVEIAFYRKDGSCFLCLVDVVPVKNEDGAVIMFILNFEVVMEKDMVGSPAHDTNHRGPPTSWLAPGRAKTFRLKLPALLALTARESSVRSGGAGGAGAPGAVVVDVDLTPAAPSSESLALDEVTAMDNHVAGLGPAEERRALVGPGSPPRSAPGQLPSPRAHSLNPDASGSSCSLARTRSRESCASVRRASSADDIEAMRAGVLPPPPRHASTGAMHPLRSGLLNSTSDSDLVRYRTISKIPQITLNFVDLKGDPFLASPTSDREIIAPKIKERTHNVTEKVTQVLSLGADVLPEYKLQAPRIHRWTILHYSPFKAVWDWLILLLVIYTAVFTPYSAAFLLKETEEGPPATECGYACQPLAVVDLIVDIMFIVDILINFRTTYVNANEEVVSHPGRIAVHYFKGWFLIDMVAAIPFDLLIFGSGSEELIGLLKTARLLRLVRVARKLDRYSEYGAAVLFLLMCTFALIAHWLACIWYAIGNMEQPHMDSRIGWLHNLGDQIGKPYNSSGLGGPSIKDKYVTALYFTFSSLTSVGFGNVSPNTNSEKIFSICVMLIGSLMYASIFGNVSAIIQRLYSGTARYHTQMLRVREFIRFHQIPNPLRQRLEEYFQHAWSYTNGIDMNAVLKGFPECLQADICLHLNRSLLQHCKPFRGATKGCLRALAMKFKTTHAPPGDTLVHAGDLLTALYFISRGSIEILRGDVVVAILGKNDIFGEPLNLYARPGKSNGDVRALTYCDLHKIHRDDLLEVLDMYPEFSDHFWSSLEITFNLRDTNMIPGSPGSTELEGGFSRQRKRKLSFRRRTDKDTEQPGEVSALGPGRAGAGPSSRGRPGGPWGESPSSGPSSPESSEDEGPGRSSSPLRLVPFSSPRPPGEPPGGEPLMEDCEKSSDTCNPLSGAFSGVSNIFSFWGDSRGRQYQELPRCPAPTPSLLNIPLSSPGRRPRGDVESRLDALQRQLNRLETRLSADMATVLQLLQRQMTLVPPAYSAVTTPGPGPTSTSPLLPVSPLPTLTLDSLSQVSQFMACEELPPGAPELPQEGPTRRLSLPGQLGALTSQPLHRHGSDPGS

Going from `COc1ccc(-c2[nH]ncc2/C=C(/C#N)C(=O)NC2CCCCC2)cc1` to `COc1ccc(OC)c(C(c2nnnn2Cc2ccccc2)N2CCC(C(N)=O)CC2)c1` (stereo not shown), the “hERG current change (%, negative = inhibition) at 1uM” value falls from 6.67% to -2.21%.

First: CN1CC[C@]23c4ccccc4N[C@H]1[C@]21CCN(C)[C@H]3Nc2ccccc21
Second: O=C(Cc1ccccc1)Nc1ccc(N2CCOCC2)cc1
The “hERG current change (%, negative = inhibition) at 1uM” value of the first is lower: 11.4% for the first, 15.1% for the second.

Going from `Nc1cc2nc3ccccc3nc2cc1N` to `N#C/C(=C\c1cccs1)c1nc2ccccc2[nH]1`, the “hERG current change (%, negative = inhibition) at 1uM” value falls from 16.5% to 10.7%.

Going from `CCN(C(=O)COC(=O)CCS(=O)(=O)c1ccc(C)cc1)C1CCS(=O)(=O)C1` (stereo not shown) to `COC(=O)C1=C(C)N(CCCC(=O)O)C(=O)NC1c1ccc(Cl)cc1` (stereo not shown), the “hERG current change (%, negative = inhibition) at 1uM” value falls from 9% to 8.03%.

Compared with `O=C(O)Cc1ccc(S(=O)(=O)Nc2ccccc2C(=O)O)cc1`, `COc1ccc(CNC(=O)CNS(=O)(=O)c2ccc(Cl)cc2)cc1` is lower in “hERG current change (%, negative = inhibition) at 1uM” value: 7.9% for the first, -2.08% for the second.

Going from `CCC/C(O)=C1\C(=O)CC(C)(C)CC1=Nc1ccccc1OC` to `COC(=O)C1=C(C)NC(=O)CC1c1cccc(OC)c1OC` (stereo not shown), the “hERG current change (%, negative = inhibition) at 1uM” value falls from -2.05% to -4.05%.

First: Oc1csc(Cc2nc(-c3ccc(Br)cc3)cs2)n1
Second: COc1cccc(-c2ncc3ccccc3c2COC(=O)c2ccc(Br)cc2)c1
The “hERG current change (%, negative = inhibition) at 1uM” value of the first is lower: 12.2% for the first, 15.5% for the second.

First: O=C1CC2C(=O)NCCN2C(=NC(=O)c2ccc(Cl)cc2)N1 (stereo not shown)
Second: Cc1ccc(C(=O)NC2(C(F)(F)F)N=C3SCCN3C2=O)cc1 (stereo not shown)
The “hERG current change (%, negative = inhibition) at 1uM” value of the first is lower: 10.3% for the first, 15.3% for the second.

Compared with `CCOC(=O)c1cccc(NC(=O)CSc2nnc(-c3ccoc3C)n2CCOC)c1`, `Cc1ccc(-n2c(SCC3CNC(=O)O3)nnc2-c2ccccc2)cc1C` (stereo not shown) is lower in “hERG current change (%, negative = inhibition) at 1uM” value: 4.53% for the first, 0.305% for the second.

Compared with `O=C1O/C(=C/c2ccccc2)N=C1c1ccccc1`, `COc1ccccc1OC(=O)c1cc2ccccc2oc1=O` is lower in “hERG current change (%, negative = inhibition) at 1uM” value: 10.1% for the first, 8.47% for the second.

First: CC(C)(C)NC(=O)Cn1ccc(=N)c2ccccc21.Cl
Second: COc1cc(C=O)ccc1OCC(=O)NC(C)(C)C
The “hERG current change (%, negative = inhibition) at 1uM” value of the first is lower: 6.14% for the first, 16.6% for the second.

First: O=C(O)C1C2C=CC(C2)C1C(=O)NCc1cccc(Cl)c1 (stereo not shown)
Second: O=C(NCc1ccc(Cl)cc1)C1CCN(c2cnccn2)CC1
The “hERG current change (%, negative = inhibition) at 1uM” value of the first is higher: 18.9% for the first, -12.3% for the second.

Compared with `CCN(CC1COc2ccccc2O1)C(=O)CN1C(=O)NC(C)(c2ccccc2)C1=O` (stereo not shown), `CCn1c(SCC(=O)N/N=C/C=C\c2ccccc2[N+](=O)[O-])nc2ccccc21` is lower in “hERG current change (%, negative = inhibition) at 1uM” value: 2.98% for the first, -4.85% for the second.

First: O=C(CCCCCNc1nc(=S)[nH]c2ccccc12)NCCc1c[nH]c2ccccc12
Second: c1ccc(OCCCc2nc(-c3ccncc3)no2)cc1
The “hERG current change (%, negative = inhibition) at 1uM” value of the first is higher: 7.38% for the first, 3.18% for the second.

Compared with `Cn1cnnc1SCC(=O)c1ccco1`, `O=C(NCCSc1ccc(Cl)cc1)c1ccco1` is lower in “hERG current change (%, negative = inhibition) at 1uM” value: 12.5% for the first, 3.48% for the second.

First: Cc1ccc(-c2ccc(CCC(=O)O)n2NC(=O)c2ccco2)cc1
Second: O=C(COc1cccc2c1CCN(Cc1ccc(Br)cc1)C2=O)NCc1ccco1
The “hERG current change (%, negative = inhibition) at 1uM” value of the first is higher: 7.27% for the first, -17.5% for the second.

Going from `N#CC1(Cc2ccc([N+](=O)[O-])cc2)c2ccccc2C=CN1C(=O)c1ccccc1` (stereo not shown) to `O=C(Nc1ccc([N+](=O)[O-])cc1)c1cccc(S(=O)(=O)Nc2ccccn2)c1`, the “hERG current change (%, negative = inhibition) at 1uM” value rises from 1.12% to 6.15%.

First: CC(C)COC(=O)CCNc1n[nH]c(=O)[nH]c1=O
Second: COCC(=O)Nc1cc([N+](=O)[O-])ccc1OC
The “hERG current change (%, negative = inhibition) at 1uM” value of the first is lower: 3.64% for the first, 11.6% for the second.

Compared with `Clc1ccccc1OCCn1cnc2ccccc21`, `CC1CC1C(=O)OCC(=O)Nc1ccccc1Oc1ccccc1` (stereo not shown) is higher in “hERG current change (%, negative = inhibition) at 1uM” value: -1.39% for the first, 19% for the second.

Compared with `c1cn(C23CC4CC(CC(C4)C2)C3)cn1`, `CCOc1cccc(CN2CCC(CCC(=O)NC3CC3)CC2)c1O` is lower in “hERG current change (%, negative = inhibition) at 1uM” value: 0.412% for the first, -47.1% for the second.

Going from `O=C(N/N=C/c1cccnc1)c1ccc(NC(=O)c2ccc(Cl)cc2)cc1` to `CC(=O)c1ccc(NC(=O)C(NC(=O)c2ccccc2)=C(C)C)cc1`, the “hERG current change (%, negative = inhibition) at 1uM” value rises from 9.62% to 15.3%.

Going from `COc1ccc(C(C(=O)NC(C)(C)C)N(C(=O)CCC(=O)Nc2cc(C)on2)c2ccc3c(c2)OCCO3)cc1` (stereo not shown) to `COc1ccc(/C=C/c2nc(S(=O)(=O)c3ccccc3)c(N(C)C)o2)cc1`, the “hERG current change (%, negative = inhibition) at 1uM” value falls from 15.1% to 7.99%.

Compared with `CCCOc1ccc(N2CC(C(=O)NC3=NCCS3)CC2=O)cc1` (stereo not shown), `Cc1ccc(CCN2CC(C(=O)NCCCN3CCCCCC3)CC2=O)cc1` (stereo not shown) is higher in “hERG current change (%, negative = inhibition) at 1uM” value: -26% for the first, 13.6% for the second.

Compared with `C/C(CC(=O)Nc1ccc(Cl)cc1Cl)=N\NC(N)=S`, `Cc1cc(C)n(C(=O)/C(C#N)=N\Nc2ccccc2[N+](=O)[O-])n1` is higher in “hERG current change (%, negative = inhibition) at 1uM” value: -10.2% for the first, 7.38% for the second.

Compared with `Cn1cc(S(=O)(=O)c2ccccc2)n(C)c1=O`, `COc1ccc(OC)c(S(=O)(=O)N2CCN(CC(O)COc3ccccc3)CC2)c1` (stereo not shown) is lower in “hERG current change (%, negative = inhibition) at 1uM” value: 13.4% for the first, -13.6% for the second.

First: OCCOCCOc1ccc(-c2nn[nH]n2)cc1
Second: N#Cc1c2ccc(OCC(N)=O)cc2n2ccccc12
The “hERG current change (%, negative = inhibition) at 1uM” value of the first is lower: 11.1% for the first, 13.6% for the second.

Compared with `COc1ccc(C2c3[nH]c4ccccc4c3C[C@H]3C(=O)N(C4CCN(Cc5ccccc5)CC4)CC(=O)N23)cc1OC` (stereo partly shown), `Cc1cccc2cc(C(c3nnnn3Cc3ccccc3)N3CCCc4ccccc43)c(=O)[nH]c12` (stereo not shown) is higher in “hERG current change (%, negative = inhibition) at 1uM” value: -9.82% for the first, 7.15% for the second.

Compared with `Nc1[nH][nH]c(=O)c1N=Nc1ccc2c(c1)OCO2`, `Cc1nc(NC(=O)c2c(-c3ccccc3Cl)noc2C)sc1C` is higher in “hERG current change (%, negative = inhibition) at 1uM” value: 0.524% for the first, 5.14% for the second.

Going from `O=C(c1ccccc1)c1c[nH]c(C(=O)C(Cl)(Cl)Cl)c1` to `COc1ccc(C(=O)O/N=C(/C(N)=O)P(=O)(OC(C)C)OC(C)C)cc1`, the “hERG current change (%, negative = inhibition) at 1uM” value falls from 16% to 8.1%.
